{
  "sequences": {"note": "Chains of the proteins cited; added tags and fusions are not shown. Residues count along the entry.", "UniProt Q9QYP1, residues 21-1723": "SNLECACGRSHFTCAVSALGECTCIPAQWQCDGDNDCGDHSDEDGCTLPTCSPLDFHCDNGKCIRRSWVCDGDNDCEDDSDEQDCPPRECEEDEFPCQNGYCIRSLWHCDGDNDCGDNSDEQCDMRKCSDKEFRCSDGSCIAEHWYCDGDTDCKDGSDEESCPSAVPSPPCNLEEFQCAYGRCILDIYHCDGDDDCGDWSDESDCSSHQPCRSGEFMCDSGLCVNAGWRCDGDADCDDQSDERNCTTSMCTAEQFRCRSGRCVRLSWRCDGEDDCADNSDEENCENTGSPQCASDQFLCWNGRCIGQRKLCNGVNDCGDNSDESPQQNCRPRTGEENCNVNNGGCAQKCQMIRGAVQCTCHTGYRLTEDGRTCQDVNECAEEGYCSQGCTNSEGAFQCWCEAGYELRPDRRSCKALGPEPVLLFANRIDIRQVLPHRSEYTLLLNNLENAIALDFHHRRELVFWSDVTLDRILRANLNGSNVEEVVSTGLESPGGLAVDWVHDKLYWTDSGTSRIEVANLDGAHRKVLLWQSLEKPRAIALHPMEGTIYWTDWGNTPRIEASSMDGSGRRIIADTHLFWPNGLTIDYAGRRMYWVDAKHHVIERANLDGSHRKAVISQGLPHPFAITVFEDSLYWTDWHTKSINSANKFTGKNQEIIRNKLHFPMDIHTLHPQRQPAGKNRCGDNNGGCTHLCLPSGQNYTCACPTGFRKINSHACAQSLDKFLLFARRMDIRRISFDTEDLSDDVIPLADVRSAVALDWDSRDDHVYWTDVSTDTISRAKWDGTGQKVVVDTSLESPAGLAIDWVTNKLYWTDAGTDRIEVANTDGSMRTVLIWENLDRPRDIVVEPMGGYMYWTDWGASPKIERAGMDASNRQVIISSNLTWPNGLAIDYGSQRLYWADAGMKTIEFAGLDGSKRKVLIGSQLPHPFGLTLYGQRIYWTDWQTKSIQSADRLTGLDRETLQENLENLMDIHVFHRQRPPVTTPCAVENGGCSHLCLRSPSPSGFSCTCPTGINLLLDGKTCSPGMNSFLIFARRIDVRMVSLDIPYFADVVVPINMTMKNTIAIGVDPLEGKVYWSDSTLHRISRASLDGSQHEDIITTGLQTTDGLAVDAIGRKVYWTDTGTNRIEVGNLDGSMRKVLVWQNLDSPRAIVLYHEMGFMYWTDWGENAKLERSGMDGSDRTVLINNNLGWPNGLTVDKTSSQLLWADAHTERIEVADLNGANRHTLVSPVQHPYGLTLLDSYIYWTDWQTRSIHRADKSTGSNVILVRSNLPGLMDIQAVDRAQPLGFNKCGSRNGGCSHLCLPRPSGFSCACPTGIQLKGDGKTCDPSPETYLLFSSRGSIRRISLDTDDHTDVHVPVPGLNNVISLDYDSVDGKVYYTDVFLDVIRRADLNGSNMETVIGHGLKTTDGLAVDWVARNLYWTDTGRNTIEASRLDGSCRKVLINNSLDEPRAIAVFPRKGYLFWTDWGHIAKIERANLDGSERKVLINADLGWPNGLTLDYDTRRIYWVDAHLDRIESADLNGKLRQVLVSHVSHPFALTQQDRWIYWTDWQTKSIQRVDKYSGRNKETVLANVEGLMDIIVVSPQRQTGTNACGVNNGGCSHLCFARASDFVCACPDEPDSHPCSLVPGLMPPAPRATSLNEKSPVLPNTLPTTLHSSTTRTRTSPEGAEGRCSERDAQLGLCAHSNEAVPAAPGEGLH"},
  "source": "paper PMC3296622",
  "key": {"[1]": {"target": "T1, Flag-tagged Wnt7a (UniProt P24383)", "T1 sequence": "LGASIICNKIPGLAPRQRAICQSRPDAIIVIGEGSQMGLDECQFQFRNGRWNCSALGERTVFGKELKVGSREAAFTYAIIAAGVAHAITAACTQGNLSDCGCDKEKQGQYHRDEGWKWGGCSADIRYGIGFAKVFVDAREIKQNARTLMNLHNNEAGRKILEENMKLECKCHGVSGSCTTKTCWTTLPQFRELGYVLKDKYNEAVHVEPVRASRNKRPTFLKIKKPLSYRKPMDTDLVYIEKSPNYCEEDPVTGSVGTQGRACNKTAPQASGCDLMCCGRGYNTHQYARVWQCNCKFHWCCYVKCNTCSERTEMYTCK", "experiment": "pull-down; solution binding assay: Flag-Wnts immobilised on beads, incubated with the Myc-tagged soluble ectodomain protein; bound proteins resolved by SDS-PAGE and blotted with anti-Myc and anti-Flag"}, "[2]": {"target": "T2, Flag-tagged Wnt11 (UniProt P48615)", "T2 sequence": "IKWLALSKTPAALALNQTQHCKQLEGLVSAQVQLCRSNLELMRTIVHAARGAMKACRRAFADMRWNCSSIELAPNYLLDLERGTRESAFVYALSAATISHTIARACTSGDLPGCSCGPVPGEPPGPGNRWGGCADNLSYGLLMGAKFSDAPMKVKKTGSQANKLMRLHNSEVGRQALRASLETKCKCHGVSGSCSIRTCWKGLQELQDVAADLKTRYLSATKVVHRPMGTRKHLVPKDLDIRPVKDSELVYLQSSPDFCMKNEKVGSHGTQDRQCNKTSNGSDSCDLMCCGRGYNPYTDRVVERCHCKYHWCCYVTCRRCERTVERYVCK", "experiment": "pull-down; solution binding assay: Flag-Wnts immobilised on beads, incubated with the Myc-tagged soluble ectodomain protein; bound proteins resolved by SDS-PAGE and blotted with anti-Myc and anti-Flag"}, "[3]": {"target": "T3, Flag-tagged Wnt9a (UniProt Q8R5M2)", "T3 sequence": "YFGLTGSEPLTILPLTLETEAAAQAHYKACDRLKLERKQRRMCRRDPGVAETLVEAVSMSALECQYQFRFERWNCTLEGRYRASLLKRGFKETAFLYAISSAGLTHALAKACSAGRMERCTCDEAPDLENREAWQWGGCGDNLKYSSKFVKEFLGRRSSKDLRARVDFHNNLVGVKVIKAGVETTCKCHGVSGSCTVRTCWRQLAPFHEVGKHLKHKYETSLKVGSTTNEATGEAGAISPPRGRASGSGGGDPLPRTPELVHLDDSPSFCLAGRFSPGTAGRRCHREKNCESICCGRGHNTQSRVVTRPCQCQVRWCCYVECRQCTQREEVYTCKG", "experiment": "pull-down; solution binding assay: Flag-Wnts immobilised on beads, incubated with the Myc-tagged soluble ectodomain protein; bound proteins resolved by SDS-PAGE and blotted with anti-Myc and anti-Flag"}, "[4]": {"target": "T1, Flag-tagged Wnt7a", "experiment": "pull-down; solution binding assay: Flag-Wnts immobilised on beads, incubated with the Myc-tagged soluble ectodomain protein; bound proteins resolved by SDS-PAGE and blotted with anti-Myc and anti-Flag", "remark": "listed apart in the source"}, "[5]": {"target": "T2, Flag-tagged Wnt11", "experiment": "pull-down; solution binding assay: Flag-Wnts immobilised on beads, incubated with the Myc-tagged soluble ectodomain protein; bound proteins resolved by SDS-PAGE and blotted with anti-Myc and anti-Flag", "remark": "listed apart in the source"}, "[6]": {"target": "T3, Flag-tagged Wnt9a", "experiment": "pull-down; solution binding assay: Flag-Wnts immobilised on beads, incubated with the Myc-tagged soluble ectodomain protein; bound proteins resolved by SDS-PAGE and blotted with anti-Myc and anti-Flag", "remark": "listed apart in the source"}, "[7]": {"target": "MuSK (Flag-MuSK and MuSK-Myc) (UniProt Q61006)", "experiment": "co-IP; Flag-MuSK and MuSK-Myc co-transfected into C2C12 myoblasts; resulting myotubes treated 1 h with control medium, agrin, Wnt9a or Wnt11; lysates precipitated with anti-Flag, blotted with anti-Myc"}},
  "note": "Like-named read-outs stand apart in the source and are kept apart here. These are yes or no findings as the source states them, for the method shown. In cells and extracts the contact can be indirect. Some results given as binding are weak or reduced against the parent protein; the word gives no strength. Tags and fused reporters may be left off the sequences shown.",
  "data": [
    {"molecule": "LRP4N-Myc, a Myc-tagged recombinant protein containing the extracellular domain of LRP4 (from UniProt Q9QYP1 21-1723) (domain or fragment)", "values": [
      {"measurement": "binding", "setting": "[1]", "result": "no binding"},
      {"measurement": "binding", "setting": "[2]", "result": "binds"},
      {"measurement": "binding", "setting": "[3]", "result": "binds"}
    ]},
    {"molecule": "MuSKect-Myc, a secreted form of MuSK's extracellular domain fused with Myc (domain or fragment, UniProt Q61006 22-494) EKLPKAPVITTPLETVDALVEEVATFMCAVESYPQPEISWTRNKILIKLFDTRYSIRENGQLLTILSVEDSDDGIYCCIANNGVGGAVESCGALQVKMKPKITRPPINVKIIEGLKAVLPCTTMGNPKPSVSWIKGDNALRENSRIAVLESGSLRIHNVQKEDAGQYRCVAKNSLGTAYSKLVKLEVEVFARILRAPESHNVTFGSFVTLRCTAIGIPVPTISWIENGNAVSSGSIQESVKDRVIDSRLQLFITKPGLYTCIATNKHGEKFSTAKAAATVSIAEWSKSQKDSQGYCAQYRGEVCDAVLAKDALVFFNTSYRDPEDAQELLIHTAWNELKAVSPLCRPAAEALLCNHLFQECSPGVVPTPMPICREYCLAVKELFCAKEWQAMEGKAHRGLYRSGMHLLPVPECSKLPSMHRDPTACTRLPYLDYKKENITTFPSITSSRPSADIPNLPASTSSFAVSPAYSMT", "values": [
      {"measurement": "binding", "setting": "[4]", "result": "no binding"},
      {"measurement": "binding", "setting": "[5]", "result": "binds"},
      {"measurement": "binding", "setting": "[6]", "result": "binds"}
    ]},
    {"molecule": "MuSK (Flag-MuSK and MuSK-Myc) (receptor, UniProt Q61006 22-868) EKLPKAPVITTPLETVDALVEEVATFMCAVESYPQPEISWTRNKILIKLFDTRYSIRENGQLLTILSVEDSDDGIYCCIANNGVGGAVESCGALQVKMKPKITRPPINVKIIEGLKAVLPCTTMGNPKPSVSWIKGDNALRENSRIAVLESGSLRIHNVQKEDAGQYRCVAKNSLGTAYSKLVKLEVEVFARILRAPESHNVTFGSFVTLRCTAIGIPVPTISWIENGNAVSSGSIQESVKDRVIDSRLQLFITKPGLYTCIATNKHGEKFSTAKAAATVSIAEWSKSQKDSQGYCAQYRGEVCDAVLAKDALVFFNTSYRDPEDAQELLIHTAWNELKAVSPLCRPAAEALLCNHLFQECSPGVVPTPMPICREYCLAVKELFCAKEWQAMEGKAHRGLYRSGMHLLPVPECSKLPSMHRDPTACTRLPYLDYKKENITTFPSITSSRPSADIPNLPASTSSFAVSPAYSMTVIISIVSSFALFALLTIATLYCCRRRKEWKNKKRESTAVTLTTLPSELLLDRLHPNPMYQRMPLLLNPKLLSLEYPRNNIEYVRDIGEGAFGRVFQARAPGLLPYEPFTMVAVKMLKEEASADMQADFQREAALMAEFDNPNIVKLLGVCAVGKPMCLLFEYMAYGDLNEFLRSMSPHTVCSLSHSDLSTRARVSSPGPPPLSCAEQLCIARQVAAGMAYLSERKFVHRDLATRNCLVGETMVVKIADFGLSRNIYSADYYKADGNDAIPIRWMPPESIFYNRYTTESDVWAYGVVLWEIFSYGLQPYYGMAHEEVIYYVRDGNILACPENCPLELYNLMRLCWSKLPADRPSFCSIHRILQRMCERAEGTVGV", "values": [
      {"measurement": "binding", "setting": "[7]", "result": "binds"}
    ]}
  ]
}
